Measurements from the RNAGym collection of RNA variant scans (doi:10.7554/elife.90254).
Read counts are not given, so values of variants with three or more changes are uncertain.

B1: LINE1-mini (parent)
chain: GGCAGAGCUCAACACAGCGUGGCAAAGUGGCUGUGGCUAGACUGCC

Variants of: B1
Assay: self-cleavage, relative activity (ratio to wild type); higher = more cleavage; in vitro, sequencing; the parent is a self-cleaving ribozyme
Variant C10U G17C G21A has a self-cleavage of 0.81.
For C3A G33U G35U C46G, the self-cleavage was 0.09.
With G2U C3A G5U U9A A11U C13G the self-cleavage was 0.01.
G2C A6G G7U A12C gave a self-cleavage of 0.02.
Work on A6G G19A A39C yielded a self-cleavage of 0.06.
G7A A16U U38A A39U showed a self-cleavage of 0.06.
Work on U28A C31A C37G C45G yielded a self-cleavage of 0.03.
C3U G7C A12U showed a self-cleavage of 0.09.
C13U G22C U43G C45A gave a self-cleavage of 0.02.
G22A A41U C42G gave a self-cleavage of 0.08.
A12G C31U U43A showed a self-cleavage of 0.02.
G29A G40U C45U gave a self-cleavage of 0.34.
For G21U G22C C46U, the self-cleavage was 0.59.
Variant A4U U20G G27A has a self-cleavage of 0.08.
G21U C23G A26C gave a self-cleavage of 0.12.
In the case of A11G G22C A24C C37U, the self-cleavage is reported as 0.02.
Work on G17U U20G C37G yielded a self-cleavage of 0.03.
Work on A6G A11U C46A yielded a self-cleavage of 0.06.
For G1U G7U C46A, the self-cleavage was 0.
A4G G35U A39C gave a self-cleavage of 0.04.
Work on A6U C23A A41C yielded a self-cleavage of 0.01.
G7A G19C G27C G33C G40U U43G G44A showed a self-cleavage of 0.02.
In the case of C10G A11G A16C C46A, the self-cleavage is reported as 0.
For G2A G19U G27U, the self-cleavage was 0.42.
Work on U9G U20G G33A yielded a self-cleavage of 0.01.
For C13U A24U G36U A39U, the self-cleavage was 0.16.
Work on A6U G17U G29C yielded a self-cleavage of 1.22.
In the case of G30A U38G C42G, the self-cleavage is reported as 0.
For C8G C10A C18U, the self-cleavage was 0.02.
For C3U A25G U34A, the self-cleavage was 0.01.
G29U C37G A41G gave a self-cleavage of 0.03.
For A14U U34A C45U, the self-cleavage was 0.8.
With A12U G27U G44U the self-cleavage was 0.36.
Work on A16G C18U A24C G33A U43C yielded a self-cleavage of 0.
G7C U28C C31A showed a self-cleavage of 0.07.
Work on G1U G5U A12G G27A yielded a self-cleavage of 0.07.
Variant G1A C3G A16C G30C has a self-cleavage of 0.4.
In the case of G7A A14U G30U, the self-cleavage is reported as 1.66.
C10U C31G G36C showed a self-cleavage of 0.03.
C13G C18G U28A showed a self-cleavage of 0.03.
For C3U G7A C23U G35U C37G C42G, the self-cleavage was 0.02.
Work on C18A U20A A25G G33A yielded a self-cleavage of 0.05.
Variant A11U A14U A24G has a self-cleavage of 0.04.
Work on U20C G22C C31U U34C A39G C42A yielded a self-cleavage of 0.06.
A4C G35C C45A showed a self-cleavage of 0.05.
With C3A A6C A16G A25U G33C G36U the self-cleavage was 0.02.
In the case of C31U G36U C37U, the self-cleavage is reported as 0.04.
For G2C C13U C18U A26C, the self-cleavage was 0.01.
G7U U32A A39U G44A showed a self-cleavage of 0.23.
G2A A16G C31A A39U gave a self-cleavage of 0.08.
Work on C15A C31U A41C yielded a self-cleavage of 0.02.
With G2C G33C G36C the self-cleavage was 0.01.
G1C C8A C23A A39G gave a self-cleavage of 0.02.
In the case of C3G U20A C37A A41G, the self-cleavage is reported as 0.05.
In the case of G30U C31A C45U, the self-cleavage is reported as 0.14.
For G7C U20G A39U, the self-cleavage was 0.04.
With G19A U28G C42U C46G the self-cleavage was 0.16.
Work on G5U A6C A11C C13U C18G A41U G44U yielded a self-cleavage of 0.
Variant A12C C42U U43C C46U has a self-cleavage of 0.
G1C C37U C45U gave a self-cleavage of 0.02.
In the case of A6G G21A G40U, the self-cleavage is reported as 0.13.
With U32G U34G G36C C45U the self-cleavage was 0.
In the case of C8U C13G U34G C42G C45A, the self-cleavage is reported as 0.25.
U9G A16U G19A U20G G33A G44C gave a self-cleavage of 0.03.
With A6G G19U G27U the self-cleavage was 0.01.
In the case of A16G U34A U43A, the self-cleavage is reported as 0.1.
G5A C15A U28A U38C showed a self-cleavage of 0.03.
In the case of G1C C13A A14C G22C A25U A26G G30A, the self-cleavage is reported as 0.02.
C23A G44C C46A gave a self-cleavage of 0.04.
Work on A6C A12C C15U G17A yielded a self-cleavage of 0.05.
Work on C8U A16U G33A yielded a self-cleavage of 0.05.
Variant A11G C15U A24C C31U G33U C42A has a self-cleavage of 0.01.
For G5C U9C U43A, the self-cleavage was 0.03.
C3A C15U G30C C46A showed a self-cleavage of 0.24.
G19A G36U C37U gave a self-cleavage of 0.01.
With G2A C13U U43C the self-cleavage was 0.11.
For G2C A12U C23A G29A, the self-cleavage was 0.13.
With G5C G17C G19U G22A the self-cleavage was 0.01.
With A14C C18A U20C U34A the self-cleavage was 0.05.
Variant A6C A14C A26G has a self-cleavage of 0.16.
Work on G1U A11C G44A yielded a self-cleavage of 0.02.
In the case of C10A A16U G30A C46A, the self-cleavage is reported as 0.02.
With G27U U28C A41C C42G the self-cleavage was 0.02.
Work on C3G C13U G30U C37A yielded a self-cleavage of 0.13.
A12G A14C G22A C31A showed a self-cleavage of 0.03.
With C8G A12C G30C the self-cleavage was 0.
With G5U A26G G35U A41U the self-cleavage was 0.12.
For A6G C15A A26U, the self-cleavage was 0.01.
Work on C10G C13U A26G G36A A41U yielded a self-cleavage of 0.
A11G U43A G44C C46U showed a self-cleavage of 0.
G2A G17C A25G A26C gave a self-cleavage of 0.03.
Variant A4U A26G C42G has a self-cleavage of 0.02.
In the case of A25C U32G C37A G44C, the self-cleavage is reported as 0.04.
A24G G27C C45U showed a self-cleavage of 0.68.
Variant C13G A25C C46A has a self-cleavage of 0.16.
Work on A4U G19C G21A A24U yielded a self-cleavage of 0.03.
G22C G29U U34C showed a self-cleavage of 0.29.
C13A C18G U34A C45G showed a self-cleavage of 0.01.
With C13U C31U A41C C46U the self-cleavage was 0.
In the case of A11C A12C G44C, the self-cleavage is reported as 0.03.
In the case of C10G A12U U32A, the self-cleavage is reported as 0.02.
With G2A C13U U28C C42U the self-cleavage was 0.43.
C18U G22C A25G A39G gave a self-cleavage of 0.16.
G1U C3G A12U A26G gave a self-cleavage of 0.07.
For C10A C18U G22U, the self-cleavage was 0.05.
Work on G1C U9C A12G U28A U38A G40C yielded a self-cleavage of 0.01.
Work on A6C G17U C42G yielded a self-cleavage of 0.05.
In the case of U9C C23G C31U G40A G44U, the self-cleavage is reported as 0.01.
For G2C C3G C23U A41U C46A, the self-cleavage was 0.02.
For A4C G5U G7A C15A G22C, the self-cleavage was 0.07.
G2C C10A C23U A26G showed a self-cleavage of 0.03.
G1U C18A G21C U38C C42U C46U showed a self-cleavage of 0.
In the case of G17U G33C C45U, the self-cleavage is reported as 0.02.
With A16G G27U G33C the self-cleavage was 0.06.
A4C U9A A41C gave a self-cleavage of 0.36.
C31A C37A C46U gave a self-cleavage of 0.02.
Work on C10A A41G G44C yielded a self-cleavage of 0.01.
Work on G7C G19C U38A yielded a self-cleavage of 0.01.
C13A G27U C42A C45G showed a self-cleavage of 0.03.
In the case of C18U U32A U38G G40C, the self-cleavage is reported as 0.01.
Work on C31A A41C C45A C46A yielded a self-cleavage of 0.04.
Variant A11U U20A G33A has a self-cleavage of 0.01.
A16U C18U C31A gave a self-cleavage of 0.07.
In the case of C3U A6U C8A G29U G36A, the self-cleavage is reported as 1.03.
For A6C G7U C15A G33U G35A, the self-cleavage was 0.07.
For G2C U20G G21A G27C C46A, the self-cleavage was 0.02.
With G17A G19C U20A C23U C37G C46A the self-cleavage was 0.01.
In the case of G1U U28G G36A, the self-cleavage is reported as 0.05.
In the case of A4U C37G A39C, the self-cleavage is reported as 0.03.
In the case of C10A U34G G44A, the self-cleavage is reported as 0.01.
G5A C15G G33U G36C gave a self-cleavage of 0.02.
In the case of C10A A41C C42U, the self-cleavage is reported as 0.01.
In the case of G2A A12U U38G C42A C46A, the self-cleavage is reported as 0.
A4U A11C A16C G21C U32A G40A showed a self-cleavage of 0.02.
In the case of G5U G17U U20A U32A, the self-cleavage is reported as 0.05.
Work on C3A G5A U32A G40C yielded a self-cleavage of 0.12.
Variant U9A C13G G19A G36C has a self-cleavage of 0.03.
C3A A24G U28A C45G showed a self-cleavage of 0.34.
G2U A4G C8A C31U C37U A41G G44A C45A C46A gave a self-cleavage of 0.02.
With C18A C23U A24U C37A the self-cleavage was 0.04.
Work on C10U A11G A12U U34A yielded a self-cleavage of 0.
With C3A A6U C13U C18G A24G the self-cleavage was 0.19.
In the case of U9C A24C A41C, the self-cleavage is reported as 0.02.
U9C A26C G30C A39U showed a self-cleavage of 0.01.
Work on G2U G5C G7U G19U U34A U38C yielded a self-cleavage of 0.07.
A6U A14U G27A gave a self-cleavage of 0.16.
With U9G C10U A26C G36U C37U the self-cleavage was 0.01.
In the case of U9A C15G G33U, the self-cleavage is reported as 0.14.
Variant G1C G2U G30U G33C has a self-cleavage of 0.02.
G19U G21A A24C showed a self-cleavage of 1.04.
C3U A14G C23A G36U showed a self-cleavage of 0.16.
G5A C18A A39U C46U showed a self-cleavage of 0.02.
G22C A24G U32G C45A showed a self-cleavage of 0.07.
Variant A24G G29U G40A has a self-cleavage of 0.44.
In the case of G19U U20C G33C, the self-cleavage is reported as 0.05.
With C10G C15G C18G G35U the self-cleavage was 0.01.
Variant C10A A11G G21C G27U A41C G44U has a self-cleavage of 0.01.
For C13G U32C C45A, the self-cleavage was 0.01.
For U28C G29C C31U, the self-cleavage was 0.4.
G5A C18A A39C C46G gave a self-cleavage of 0.02.
For G1U A11C A26C G29C G30C G33A U43A, the self-cleavage was 0.01.
Variant C3A U9C U32A G44U has a self-cleavage of 0.
In the case of C13U A14U A26C G36C, the self-cleavage is reported as 0.06.
C13G G17A G19U G21A G40U showed a self-cleavage of 0.01.
G1C C13A G21U G35U gave a self-cleavage of 0.13.
For C15U G33A A39G A41G, the self-cleavage was 0.01.
Variant G5U U38G C42A C46U has a self-cleavage of 0.
